{"source": "patent US20240182945A1", "about": "“PRODUCTS FOR REGULATION OF EUKARYOTIC AND MICROBIAL CELLS GROWTH” (priority 2021, published 2024)", "system": "bacteria of biosample (sputum)", "experiment": "Antibiotic efficacy (presence or absence of bacterial growth) under normal or altered magnetic/electromagnetic field", "settings": "antibiotic at mean concentration achievable at the site of infection during 4 h"}
{"molecule": "Amoxicillin clavulanate", "values": [{"measurement": "efficacy of antibiotics (bacterial growth with naked eye within 24 h)", "setting": "Foil", "result": "R"}, {"measurement": "efficacy of antibiotics (bacterial growth with naked eye within 24 h)", "setting": "Mu-shield material", "result": "R"}, {"measurement": "efficacy of antibiotics (bacterial growth with naked eye within 24 h)", "setting": "Normal magnetic field", "result": "S"}]}
{"molecule": "CO/N=C(\\C(=O)N[C@@H]1C(=O)N2C(C(=O)O)=C(CSc3nc(=O)c(=O)[nH]n3C)CS[C@H]12)c1csc(N)n1", "note": "[Ceftriaxone]", "values": [{"measurement": "efficacy of antibiotics (bacterial growth with naked eye within 24 h)", "setting": "Foil", "result": "S"}, {"measurement": "efficacy of antibiotics (bacterial growth with naked eye within 24 h)", "setting": "Mu-shield material", "result": "S"}, {"measurement": "efficacy of antibiotics (bacterial growth with naked eye within 24 h)", "setting": "Normal magnetic field", "result": "S"}]}
{"molecule": "C[C@H]1COc2c(N3CCN(C)CC3)c(F)cc3c(=O)c(C(=O)O)cn1c23", "note": "[Levofloxacin]", "values": [{"measurement": "efficacy of antibiotics (bacterial growth with naked eye within 24 h)", "setting": "Foil", "result": "S"}, {"measurement": "efficacy of antibiotics (bacterial growth with naked eye within 24 h)", "setting": "Mu-shield material", "result": "S"}, {"measurement": "efficacy of antibiotics (bacterial growth with naked eye within 24 h)", "setting": "Normal magnetic field", "result": "S"}]}
{"molecule": "CC(=O)NC[C@H]1CN(c2ccc(N3CCOCC3)c(F)c2)C(=O)O1", "note": "[Linezolid]", "values": [{"measurement": "efficacy of antibiotics (bacterial growth with naked eye within 24 h)", "setting": "Foil", "result": "R"}, {"measurement": "efficacy of antibiotics (bacterial growth with naked eye within 24 h)", "setting": "Mu-shield material", "result": "R"}, {"measurement": "efficacy of antibiotics (bacterial growth with naked eye within 24 h)", "setting": "Normal magnetic field", "result": "S"}]}
{"molecule": "CO/N=C(\\C(=O)N[C@@H]1C(=O)N2C(C(=O)[O-])=C(C[N+]3(C)CCCC3)CS[C@H]12)c1csc(N)n1", "note": "[Cefepime]", "values": [{"measurement": "efficacy of antibiotics (bacterial growth with naked eye within 24 h)", "setting": "Foil", "result": "S"}, {"measurement": "efficacy of antibiotics (bacterial growth with naked eye within 24 h)", "setting": "Mu-shield material", "result": "S"}, {"measurement": "efficacy of antibiotics (bacterial growth with naked eye within 24 h)", "setting": "Normal magnetic field", "result": "S"}]}
{"molecule": "C[C@@H](O)[C@H]1C(=O)N2C(C(=O)O)=C(S[C@@H]3CN[C@H](C(=O)N(C)C)C3)[C@H](C)[C@H]12", "note": "[Meropenem]", "values": [{"measurement": "efficacy of antibiotics (bacterial growth with naked eye within 24 h)", "setting": "Foil", "result": "S"}, {"measurement": "efficacy of antibiotics (bacterial growth with naked eye within 24 h)", "setting": "Mu-shield material", "result": "S"}, {"measurement": "efficacy of antibiotics (bacterial growth with naked eye within 24 h)", "setting": "Normal magnetic field", "result": "S"}]}
{"molecule": "CC[C@H]1OC(=O)[C@H](C)[C@@H](O[C@H]2C[C@@](C)(OC)[C@@H](O)[C@H](C)O2)[C@H](C)[C@@H](O[C@@H]2O[C@H](C)C[C@H](N(C)C)[C@H]2O)[C@](C)(O)C[C@@H](C)CN(C)[C@H](C)[C@@H](O)[C@]1(C)O", "note": "[Azithromycin]", "values": [{"measurement": "efficacy of antibiotics (bacterial growth with naked eye within 24 h)", "setting": "Foil", "result": "R"}, {"measurement": "efficacy of antibiotics (bacterial growth with naked eye within 24 h)", "setting": "Mu-shield material", "result": "R"}, {"measurement": "efficacy of antibiotics (bacterial growth with naked eye within 24 h)", "setting": "Normal magnetic field", "result": "R"}]}
{"molecule": "NCC[C@H](O)C(=O)N[C@@H]1C[C@H](N)[C@@H](O[C@H]2O[C@H](CN)[C@@H](O)[C@H](O)[C@H]2O)[C@H](O)[C@H]1O[C@H]1O[C@H](CO)[C@@H](O)[C@H](N)[C@H]1O", "note": "[Amikacin]", "values": [{"measurement": "efficacy of antibiotics (bacterial growth with naked eye within 24 h)", "setting": "Foil", "result": "S"}, {"measurement": "efficacy of antibiotics (bacterial growth with naked eye within 24 h)", "setting": "Mu-shield material", "result": "R"}, {"measurement": "efficacy of antibiotics (bacterial growth with naked eye within 24 h)", "setting": "Normal magnetic field", "result": "R"}]}
{"molecule": "CCC[C@@H]1C[C@@H](C(=O)N[C@@H]([C@H]2O[C@H](SC)[C@H](O)[C@@H](O)[C@H]2O)[C@H](C)Cl)N(C)C1", "note": "[Clindamycin]", "values": [{"measurement": "efficacy of antibiotics (bacterial growth with naked eye within 24 h)", "setting": "Foil", "result": "R"}, {"measurement": "efficacy of antibiotics (bacterial growth with naked eye within 24 h)", "setting": "Mu-shield material", "result": "R"}, {"measurement": "efficacy of antibiotics (bacterial growth with naked eye within 24 h)", "setting": "Normal magnetic field", "result": "R"}]}
{"molecule": "CN[C@H](CC(C)C)C(=O)N[C@H]1C(=O)N[C@@H](CC(N)=O)C(=O)N[C@H]2C(=O)N[C@H]3C(=O)N[C@H](C(=O)N[C@H](C(=O)O)c4cc(O)cc(O)c4-c4cc3ccc4O)[C@H](O)c3ccc(c(Cl)c3)Oc3cc2cc(c3O[C@@H]2O[C@H](CO)[C@@H](O)[C@H](O)[C@H]2O[C@H]2C[C@](C)(N)[C@H](O)[C@H](C)O2)Oc2ccc(cc2Cl)[C@H]1O", "note": "[Vancomycin]", "values": [{"measurement": "efficacy of antibiotics (bacterial growth with naked eye within 24 h)", "setting": "Foil", "result": "R"}, {"measurement": "efficacy of antibiotics (bacterial growth with naked eye within 24 h)", "setting": "Mu-shield material", "result": "S"}, {"measurement": "efficacy of antibiotics (bacterial growth with naked eye within 24 h)", "setting": "Normal magnetic field", "result": "R"}]}
